Laboratory results from PubChem BioAssay AID1460 (National Center for Advancing Translational Sciences (NCATS), 2008).
Values joined by “and” are separate entries in the source; they are usually repeats but may differ in a detail not shown here. Equal values may be shown once. The campaign covered roughly 270,000 compounds. About 5,800 (2.1%) were called active. The shares of active, inactive and inconclusive entries below differ from those in the screen. Calls follow the shape of the dose curve; as a rule, active = well fitted inhibition curve with a large enough effect; inconclusive = small, poorly fitted or top-dose-only effect; inactive = flat fitted curve, though single readings scatter. Potencies beside an inconclusive call are fits to weak or partial responses and may not hold up. Some structures have more than one record in an assay (separate samples or runs), and their calls can disagree.

target: Microtubule-associated protein tau (Homo sapiens) (UniProt P10636); assay: qHTS for Inhibitors of Tau Fibril Formation, Thioflavin T Binding; details: recombinant tau K18 P301L (four-repeat tau fragment), heparin-induced fibrillization, ThT fluorescence; series mostly up to 57.4 µM; also: nearly all actives have a fitted effect of over 55% in size
Chain of UniProt P10636 (P10636 whole entry, looked up, the tested form may be a part): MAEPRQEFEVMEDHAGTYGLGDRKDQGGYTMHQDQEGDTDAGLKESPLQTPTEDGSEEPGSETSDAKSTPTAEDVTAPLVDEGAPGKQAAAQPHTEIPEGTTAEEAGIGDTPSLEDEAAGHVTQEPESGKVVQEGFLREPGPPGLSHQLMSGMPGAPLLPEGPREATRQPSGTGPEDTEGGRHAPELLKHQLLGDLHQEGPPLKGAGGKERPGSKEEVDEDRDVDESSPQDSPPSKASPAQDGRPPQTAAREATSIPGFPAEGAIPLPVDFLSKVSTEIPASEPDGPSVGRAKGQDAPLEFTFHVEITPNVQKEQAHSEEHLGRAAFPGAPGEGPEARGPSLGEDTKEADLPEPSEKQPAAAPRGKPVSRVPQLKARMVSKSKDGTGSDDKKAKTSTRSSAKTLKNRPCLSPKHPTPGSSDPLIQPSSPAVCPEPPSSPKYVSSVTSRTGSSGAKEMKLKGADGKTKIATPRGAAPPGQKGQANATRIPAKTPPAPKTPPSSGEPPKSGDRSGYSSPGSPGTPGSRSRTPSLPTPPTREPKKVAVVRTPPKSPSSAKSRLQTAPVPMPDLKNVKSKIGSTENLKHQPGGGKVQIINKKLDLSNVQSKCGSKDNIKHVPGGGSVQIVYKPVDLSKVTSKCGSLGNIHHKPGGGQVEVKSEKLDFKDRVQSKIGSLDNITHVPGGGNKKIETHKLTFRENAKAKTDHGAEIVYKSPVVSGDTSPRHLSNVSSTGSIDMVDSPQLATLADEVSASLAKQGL
Procedure, shortened: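 K18 P301L tau (15 uM + 0.24 uM Alexa 594-tagged), heparin 20 uM, NaOAc pH 7, 6 h 37 C; ThT 30 uM, 1 h RT, ex 450/em 510 nm.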
Potency is read from the fitted curve at half-maximal effect; tags tell the direction and shape of the fitted curve.

Which Potency does the source give for COC/C=C/C1=CC2=CC(=O)C(C)(OC(=O)c3cnc4ccccc4n3)C(=O)C2=CN1c1ccccc1 (stereo not drawn) here?
Its Potency is active: 12.6 µM.

Which Potency does the source give for CCN(CC)S(=O)(=O)c1ccc2oc(C(=O)NCc3ccc(C)cc3)c(C)c2c1 here?
The Potency was “inactive”.

For COc1cccc(NS(=O)(=O)c2ccc3c(c2)C2C=CCC2C(c2ccc(C(=O)O)cc2)N3)c1 (stereo not drawn), which Potency is on record?
Its Potency is active: 14.1 µM.

With COC(=O)CSc1nc(-c2ccccc2)cc(-c2ccco2)c1C#N as the molecule, how does the Potency read?
The Potency was inconclusive: 35.5 µM [inhibitor, single point].

CCCC(=O)c1ccc(-c2ccccc2)cc1 was tested. Which Potency did it give?
Its Potency is “inactive”.

With COc1ccc(Cl)cc1NS(=O)(=O)c1ccc2[nH]c3c(c2c1)CCCC3 as the molecule, how does the Potency read?
Its Potency is “inactive”.

With COc1cc(/C=C/c2nc(C#N)c(N3CCCCCC3)o2)cc(OC)c1OC as the molecule, how does the Potency read?
Its Potency is inconclusive: 15.8 µM [inhibitor, partial curve, poor fit].

NC(=S)N/N=C/c1ccc(-c2cccc([N+](=O)[O-])c2)o1 was tested. Which Potency did it give?
Its Potency is inconclusive: 10 µM [inhibitor, partial curve].

How did the Potency turn out when Fc1ccc(NC(=S)Nc2ccc(Br)cc2)cc1 was run?
The Potency was inconclusive: 20 µM [activator, single point].

For O=S(=O)(Nc1ccccc1C(F)(F)F)c1ccc(N2CCCCS2(=O)=O)cc1, which Potency is on record?
The Potency was “inactive”.

How did the Potency turn out when CSC(=S)N/N=C/c1ccc(Br)cc1 was run?
Its Potency is inconclusive: 0.794 µM [inhibitor, partial curve, poor fit].

How did the Potency turn out when CCCCNC(=S)N=Nc1c(O)[nH]c2ccccc12 was run?
Its Potency is inconclusive: 14.1 µM [inhibitor, partial curve].

Which Potency does the source give for O=C(Nc1nc(-c2ccccc2)cs1)C1COc2ccccc2O1 (stereo not drawn) here?
Its Potency is inconclusive: 1 µM [inhibitor, partial curve, poor fit].

How did the Potency turn out when FC(F)(F)c1cc(NC(=S)NC23CC4CC(CC(C4)C2)C3)cc(C(F)(F)F)c1 was run?
The Potency was “inactive”.

CC(C)c1ccccc1NC(=O)COC(=O)CCN1C(=O)/C(=C\C=C\c2ccccc2)SC1=S was tested. Which Potency did it give?
Its Potency is inconclusive: 4.47 µM [inhibitor, full curve].

With N/C(=N\OC(=O)COc1ccc(Cl)cc1Br)c1ccncc1 as the molecule, how does the Potency read?
The Potency was inconclusive: 15.8 µM [inhibitor, partial curve].

COc1cccc(/C=C/c2nc(C#N)c(NCCN(C)C)o2)c1 was tested. Which Potency did it give?
The Potency was inconclusive: 17.8 µM [inhibitor, partial curve].

How did the Potency turn out when C=CCn1c(=O)c2ccccc2n2c(SCC(=O)Nc3sc(C(=O)N(CC)CC)c(C)c3C(=O)OCC)nnc12 was run?
The Potency was inconclusive: 35.5 µM [inhibitor, single point].

With COc1ccc(S(=O)(=O)N(Cc2cc3cc(C)ccc3[nH]c2=O)CC2CCCO2)cc1 (stereo not drawn) as the molecule, how does the Potency read?
Its Potency is “inactive”.

How did the Potency turn out when COc1ccc(Cn2c(CCC(=O)NCc3cccc(Cl)c3)nc3cccnc32)cc1 was run?
The Potency was “inactive”.

For CCCCCc1ccc(CC(=O)O)cc1, which Potency is on record?
The Potency was “inactive”.

For CCCCCC/C=C/c1ccc([C@H]2[C@H]3C=CC[C@@H](C)[C@@H]3C(=O)N2Cc2ccccc2)c(F)c1, which Potency is on record?
Its Potency is inconclusive: 1.78 µM [inhibitor, full curve].

For Fc1ccccc1-c1ccc(/C=N/Nc2nc3ccccc3[nH]2)o1, which Potency is on record?
Its Potency is active: 6.31 µM.

How did the Potency turn out when COc1ccc(CCNC(=O)c2cc(-c3cccs3)on2)cc1OC was run?
Its Potency is inconclusive: 5.01 µM [inhibitor, full curve].

With COc1ccc(OCCn2cnc(Cl)c2Cl)cc1 as the molecule, how does the Potency read?
Its Potency is inconclusive: 39.8 µM [inhibitor, single point].

How did the Potency turn out when Cc1ccc(C)n1-c1ccc(-c2ccn[nH]2)cc1 was run?
The Potency was inconclusive: 25.1 µM [inhibitor, partial curve].

For Cn1cccc1C(=O)NC(=O)COC(=O)CNS(=O)(=O)c1ccc(Br)cc1, which Potency is on record?
Its Potency is inconclusive: 17.8 µM [inhibitor, partial curve].

CC(=O)Nc1ccc(C2=NNC(=Nc3cccc(S(=O)(=O)N(C)C)c3)SC2)cc1 was tested. Which Potency did it give?
The Potency was active: 7.94 µM.

COc1ccc(-c2cn3cc(Br)cnc3n2)cc1 was tested. Which Potency did it give?
The Potency was inconclusive: 2.51 µM [inhibitor, full curve, poor fit].

How did the Potency turn out when O=C(Nc1ccccc1N1CCN(c2ccc(F)cc2)CC1)c1ccccc1 was run?
The Potency was inconclusive: 31.6 µM [inhibitor, single point].

How did the Potency turn out when CC(=O)c1ccc(NC(=O)CCc2c(C)nc3ncnn3c2C)cc1 was run?
The Potency was inconclusive: 17.8 µM [inhibitor, partial curve].

Cn1c(=O)c2c(-c3ccc(Cl)cc3)n(Cc3ccccc3)cc2n(C)c1=O was tested. Which Potency did it give?
The Potency was inconclusive: 17.8 µM [inhibitor, partial curve].

Cc1cc(CN(C)Cc2cn(C)nc2-c2ccc(Oc3ccccc3)cc2)on1 was tested. Which Potency did it give?
The Potency was inconclusive: 17.8 µM [inhibitor, single point].

CC(/C=N\NC(=O)c1ccc(C)nc1)=C\c1ccccc1 was tested. Which Potency did it give?
The Potency was inconclusive: 17.8 µM [inhibitor, single point].

How did the Potency turn out when Cc1ccc(Cl)cc1N1CCN(C(=O)C2CCN(S(=O)(=O)c3cccc4nonc34)CC2)CC1 was run?
Its Potency is inconclusive: 2.51 µM [inhibitor, partial curve, poor fit].

Which Potency does the source give for Cc1ccccc1OC(=O)CSc1nnc(-c2ccc3c(c2)OCO3)o1 here?
Its Potency is “inactive”.

Which Potency does the source give for Cc1ccc(C(=O)Nc2ccc(S(=O)(=O)O)c3cc(S(=O)(=O)O)cc(S(=O)(=O)O)c23)cc1NC(=O)c1cccc(NC(=O)Nc2cccc(C(=O)Nc3cc(C(=O)Nc4ccc(S(=O)(=O)O)c5cc(S(=O)(=O)O)cc(S(=O)(=O)O)c45)ccc3C)c2)c1 here?
Its Potency is “inactive and inconclusive: 39.8 µM [activator, single point] and inconclusive: 17.8 µM [activator, partial curve]”.

Which Potency does the source give for CN1CCN(C(=O)Cn2c(-c3cccs3)cc3cc(Cl)ccc32)CC1 here?
Its Potency is “inactive”.

How did the Potency turn out when O=C(c1noc2c1CCCCC2)N1CCN(c2cccc(C(F)(F)F)c2)CC1 was run?
Its Potency is “inactive”.

With COc1ccccc1CNc1nc2ccc(Cl)cc2n2cnnc12 as the molecule, how does the Potency read?
Its Potency is inconclusive: 39.8 µM [activator, single point].

Which Potency does the source give for CC12CCC(=O)N1C(C(=O)OCC(=O)Nc1sccc1C#N)CS2 (stereo not drawn) here?
Its Potency is inconclusive: 39.8 µM [inhibitor, single point].

Which Potency does the source give for CC(C)COc1ccc(C2=NC(c3ccncc3)=Nc3ccc(F)cc3N2)cc1 here?
Its Potency is inconclusive: 4.47 µM [inhibitor, partial curve].

With COc1ccc(NC(=O)Nc2nc3c(s2)CCCC3)cc1 as the molecule, how does the Potency read?
The Potency was inconclusive: 12.6 µM [inhibitor, partial curve].

Which Potency does the source give for CC(C)c1ccc(NC(=O)CCNS(=O)(=O)c2cccc3nonc23)cc1 here?
The Potency was “inactive”.

For COc1ccc2c(c1)c(C(=O)N/N=C/c1ccc(Br)cc1)c(C)n2C, which Potency is on record?
The Potency was inconclusive: 7.08 µM [inhibitor, partial curve].

Which Potency does the source give for CCOc1ccc(OCc2cccc(C(=O)Nc3ccc(CN4CCCCC4)cc3)c2)cc1 here?
Its Potency is “inactive”.

Which Potency does the source give for C=CCSc1nnc(NC(=O)COc2ccc3ccccc3c2)s1 here?
Its Potency is inconclusive: 0.794 µM [inhibitor, full curve].

For COc1ccc(S(=O)(=O)N2CCC(C(N)=O)(N3CCCCC3)CC2)cc1, which Potency is on record?
The Potency was “inactive”.

Which Potency does the source give for O=C(/C=C/c1ccc([N+](=O)[O-])cc1)NCc1cccs1 here?
The Potency was “inactive”.

With COC(=O)c1ccc(CSc2ncnc3ccccc23)o1 as the molecule, how does the Potency read?
The Potency was inconclusive: 22.4 µM [inhibitor, partial curve, poor fit].

NC(=S)n1[nH]c(-c2ccc([N+](=O)[O-])cc2)c(N=Nc2cccc([N+](=O)[O-])c2)c1=O was tested. Which Potency did it give?
Its Potency is active: 11.2 µM.

Cn1nnc2c(N3CCN(c4ccccc4)CC3)ncnc21 was tested. Which Potency did it give?
The Potency was inconclusive: 5.62 µM [inhibitor, partial curve].

How did the Potency turn out when Nc1ccc(-c2nc3ccc(N)cc3o2)cc1 was run?
The Potency was inconclusive: 20 µM [inhibitor, partial curve].

O=C(CNc1ccccc1OC(F)F)N1CCc2ccccc21 was tested. Which Potency did it give?
The Potency was inconclusive: 7.08 µM [inhibitor, full curve].

With Cc1cc2ccccc2n1CCNC(=O)c1cc(C(F)(F)F)cc(C(F)(F)F)c1 as the molecule, how does the Potency read?
Its Potency is “inactive”.

CCOC(=O)c1ccc2ncc(C(=O)OCC)c(NCc3ccco3)c2c1 was tested. Which Potency did it give?
The Potency was inconclusive: 12.6 µM [inhibitor, partial curve].

COc1ccccc1C1OC2=C(Nc3ccc([N+](=O)[O-])cc3N2)C1=O (stereo not drawn) was tested. Which Potency did it give?
The Potency was inconclusive: 17.8 µM [inhibitor, partial curve].

Which Potency does the source give for O=C(CCCn1c(=O)c2ccccc2n(CC(=O)Nc2cccc(C(F)(F)F)c2)c1=O)NCc1ccc2c(c1)OCO2 here?
Its Potency is inconclusive: 22.4 µM [activator, partial curve, poor fit].

How did the Potency turn out when COC(=O)c1c(NC(=O)CCCC(=O)O)sc(C)c1C was run?
Its Potency is “inactive”.

Which Potency does the source give for O=C(Nc1cccc(-c2csc(Nc3ccccc3)n2)c1)c1ccccc1 here?
Its Potency is inconclusive: 4.47 µM [inhibitor, partial curve].

Which Potency does the source give for COc1cc(C2SC[C@H]3C(=O)N(c4ccccc4)C(=O)N23)cc(OC)c1OC (stereo partly drawn) here?
Its Potency is “inactive”.

Which Potency does the source give for COc1ccc(CNC(=O)C2CCCN(C(=O)N3CCOc4ccccc43)C2)cc1 (stereo not drawn) here?
Its Potency is “inactive”.

How did the Potency turn out when COC(=O)c1c(NC(=O)CN2C(=O)NC(CCc3ccccc3)C2=O)sc2c1CCCCC2 (stereo not drawn) was run?
Its Potency is inconclusive: 31.6 µM [inhibitor, single point].

With CC(=O)Oc1cccc(N2C(=O)c3ccc(C(=O)Nc4cccnc4)cc3C2=O)c1 as the molecule, how does the Potency read?
The Potency was “inactive”.

How did the Potency turn out when Cc1ccc(-c2nc(NCC3CCCO3)sc2C)cc1 (stereo not drawn) was run?
Its Potency is “inactive”.

O=S(=O)(Nc1cccnc1)c1ccccc1 was tested. Which Potency did it give?
Its Potency is “inactive”.

How did the Potency turn out when CCOc1ccc(C2c3c(oc4cc(C)c(C)cc4c3=O)C(=O)N2CCCN2CCOCC2)cc1 (stereo not drawn) was run?
Its Potency is inconclusive: 39.8 µM [inhibitor, partial curve].

Which Potency does the source give for Cc1ccnc(NC(=S)NC(=O)c2cccs2)c1 here?
Its Potency is inconclusive: 17.8 µM [inhibitor, partial curve].
